The subject of one assay is HSkMC. Briefly: cytotoxicity call (relative viability < 0.9). The conditions noted are these: 10 µM.
For the next assay, the system named is HepG2. Briefly: cytotoxicity call (relative viability < 0.9). As to conditions: 10 µM.
The subject of another assay is S. aureus RN4220. Briefly: growth inhibition call (relative growth <= 0.2). The conditions noted are these: 50 µM.

Each structure is given as a SMILES string. The list shows a part of the results.

The text below walks through data of the antibiotic and cytotoxicity screens of Wong et al. (2023).

As for `COCC#Cc1cnc2c(c1)C(=O)N([C@H](C)CO)C[C@H](C)[C@@H](CN(C)C(=O)CN1CCOCC1)O2`, the cytotoxicity call with HSkMC and in the assay with HepG2 was “inactive” throughout. Further, the growth inhibition call in the assay on S. aureus RN4220 is “inactive”.
Take `O=C(C[C@H]1CC[C@@H]2[C@H](COC[C@@H](O)CN2C(=O)c2ccccn2)O1)NC1CCC1`: the cytotoxicity call with HSkMC and with HepG2 was “inactive” each time. Moreover, the growth inhibition call in the assay with S. aureus RN4220 is “inactive”.
For the compound `COC(=O)CNC(=O)/C=C/c1ccc(OC)cc1`, the cytotoxicity call in the assay with HSkMC and in the assay with HepG2 was “inactive” throughout. Besides, the growth inhibition call in the assay with S. aureus RN4220 is “inactive”.
As to `C[C@@H]1CN([C@@H](C)CO)C(=O)CCCn2nncc2CO[C@H]1CN(C)C(=O)Nc1cccc2ccccc12`, the cytotoxicity call with HSkMC and with HepG2 was “inactive” each time. Besides, in the assay with S. aureus RN4220, the growth inhibition call is “inactive”.
Regarding `CC1(C)c2nc(-c3ccc(F)cc3)c(Nc3ccc(F)cc3)n2CCN1C(=O)CN`, the cytotoxicity call in the assay with HSkMC and in the assay with HepG2 was “inactive” in each case. Further, the growth inhibition call in the assay with S. aureus RN4220 was “inactive”.
Turning to `CC(=O)C1(O)CCC2C3C=C(Cl)C4=CC(=O)C5CC5C4(C)C3CCC21C` (centres undefined), the cytotoxicity call in the assay on HSkMC and with HepG2 was “inactive” each time. Also, the growth inhibition call with S. aureus RN4220 is “inactive”.
As to `C[C@H]1CN([C@@H](C)CO)C(=O)c2cccc(NS(=O)(=O)c3ccccc3)c2O[C@H]1CN(C)Cc1ccc(-c2ccccc2)cc1`, the cytotoxicity call with HSkMC and in the assay on HepG2 was “inactive” in each case. Further, the growth inhibition call with S. aureus RN4220 was “inactive”.
On to `C[C@H](CO)N1C[C@H](C)[C@@H](CN(C)S(=O)(=O)c2cn(C)cn2)Oc2c(NC(=O)Nc3ccc4c(c3)OCO4)cccc2C1=O`, for which the cytotoxicity call with HSkMC and with HepG2 was “inactive” in each case. In addition, the growth inhibition call in the assay on S. aureus RN4220 is “inactive”.
Turning to `C[C@H]1CN([C@@H](C)CO)C(=O)c2c(c3ccccc3n2C)-c2ccccc2CO[C@@H]1CN(C)Cc1cccc2c1OCCCO2`, the cytotoxicity call in the assay on HSkMC (human skeletal muscle cells) and with HepG2 was “inactive” each time. The growth inhibition call with S. aureus RN4220 is “inactive”.
`C[C@@H]1CCCCO[C@@H](CN(C)Cc2ccc(Cl)c(Cl)c2)[C@H](C)CN([C@H](C)CO)C(=O)c2cc(NC(=O)Nc3cccc4ccccc34)ccc2O1`: the cytotoxicity call in the assay with HSkMC and in the assay with HepG2 was “inactive” each time. The growth inhibition call in the assay with S. aureus RN4220 is “inactive”.
On to `Cc1ccc(S(=O)(=O)Nc2ccc3c(c2)C(=O)N([C@H](C)CO)C[C@@H](C)[C@H](CN(C)C(=O)Nc2cccc4ccccc24)O3)cc1`, for which, in the assay with HSkMC, the cytotoxicity call was “inactive”. For the same compound, the cytotoxicity call in the assay on HepG2 was “active”. Also, the growth inhibition call with S. aureus RN4220 is “inactive”.
On to `C[C@@H]1CN([C@H](C)CO)C(=O)Cc2cc(NC(=O)Cn3cnnn3)ccc2O[C@@H]1CN(C)CC1CC1`, for which the cytotoxicity call with HSkMC and in the assay with HepG2 was “inactive” throughout. For the same compound, in the assay with S. aureus RN4220, the growth inhibition call was “inactive”.
Take `Cc1ccc(S(=O)(=O)Nc2ccc3c(c2)C(=O)N([C@H](C)CO)C[C@@H](C)[C@H](CN(C)Cc2ccc(C(F)(F)F)cc2)OCCCC[C@H](C)O3)cc1`: the cytotoxicity call with HSkMC and in the assay on HepG2 was “active” in each case. Also, the growth inhibition call in the assay with S. aureus RN4220 is “inactive”.
